In all, about 39,000 compounds went through this assay and about 220 (0.56%) showed activity. Some of the results follow.

The record followed here is the supplement of paper PMC9446081.
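Also: static incubation at 37 °C against the wild-type strain, values averaged over two biological replicates.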

The assay concerns Escherichia coli K-12 BW25113. As to the kind of experiment: relative growth (OD600 normalised to plate interquartile mean) (fraction); higher = less growth inhibition, active = 0.2 or less. The note with it: 50 µM; LB; incubation time: overnight (16-24 h).
In the case of `O=C(C[C@H]1CC[C@H](NC(=O)Cc2ccccn2)[C@H](CO)O1)NCCCN1CCOCC1`, the relative growth was inactive: 1.01.
The result for `CCS(=O)(=O)N1C[C@]2(C1)CN([C@H](CO)c1[nH]c3cc(ccc3c12)OC)S(=O)(=O)c1cccc(c1)OC` reads inactive: 0.989; that for `COC(=O)C1=C(C#N)NC(C)=C(C(=O)OC(C)C)C1c1cccc([N+](=O)[O-])c1` (stereo not given), inactive: 1.04; that for `O=C(C[C@@H]1CC[C@H]2[C@@H](COC[C@H](O)CN2S(=O)(=O)c2ccc(F)cc2)O1)NCCN1CCCCC1`, inactive: 0.979.
The result for `C[C@@H]1CCCCO[C@@H](CN(C)S(=O)(=O)c2ccc(Cl)cc2)[C@@H](C)CN([C@@H](C)CO)C(=O)c2cc(NC(=O)Nc3cccc4ccccc34)ccc2O1` reads inactive: 1.01.
Consider `C[C@H](CO)N1C[C@H](C)[C@@H](CN(C)Cc2ccc(Cl)c(Cl)c2)Oc2ccc(NC(=O)Cc3cn(C)c4ccccc34)cc2C1=O`, for which the relative growth was inactive: 0.991.
The result for `C[C@@H]1CN([C@@H](C)CO)C(=O)c2cc(NC(=O)CCC(F)(F)F)ccc2O[C@@H](C)CCCCO[C@H]1CN(C)C(=O)NC1CCCCC1` reads inactive: 0.994; that for `C[C@H](CO)N1C[C@H](C)[C@@H](CN(C)S(=O)(=O)c2cccs2)Oc2ccc(NC(=O)Cc3ccccc3)cc2C1=O`, inactive: 0.996; that for `Cc1noc(C)c1NC(=O)Nc1ccc2c(c1)CC(=O)N([C@H](C)CO)C[C@H](C)[C@@H](CN(C)C(=O)Nc1ccc(C(F)(F)F)cc1)O2`, inactive: 0.992.
The figure for `C[C@H](CO)N1C[C@H](C)[C@@H](CN(C)Cc2ccc(C(=O)O)cc2)Oc2c(NC(=O)Nc3ccc(C(F)(F)F)cc3)cccc2C1=O` is inactive: 0.993; for `CN(C)CC(=O)N[C@@H]1CC[C@@H](CCn2cc(CN(C)C)nn2)O[C@@H]1CO` it is inactive: 0.976; for `CC(C)NC(=O)Nc1ccc2c(c1)C(=O)N([C@H](C)CO)C[C@@H](C)[C@@H](CN(C)S(=O)(=O)c1ccc(Cl)cc1)O2` it is inactive: 1.01.
For the compound `O=C(C[C@H]1CC[C@H](NC(=O)c2cnccn2)[C@H](CO)O1)NCc1ccccc1F`, the relative growth was inactive: 0.984.
As for `O=C(C[C@H]1CC[C@H](NS(=O)(=O)c2ccccc2)[C@H](CO)O1)NCc1ccncn1`, the relative growth was inactive: 1.05.
The result for `O=C(C[C@@H]1CC=CC[C@H](NC(=O)OCC2c3ccccc3-c3ccccc32)C(=O)OC[C@@H](Cc2c[nH]c3ccccc23)NC1=O)N[C@H](CO)Cc1ccccc1` reads inactive: 0.937.
For the compound `C[C@H]1CCCCO[C@@H](CN(C)Cc2ccccc2)[C@@H](C)CN([C@@H](C)CO)C(=O)c2cc(NC(=O)NC3CCCCC3)ccc2O1`, the relative growth is inactive: 1.02.
The result for `COc1ccccc1NCC(=O)NN` reads inactive: 1.01.
The result for `C[C@@H]1CN([C@H](C)CO)C(=O)Cc2cc(NC(=O)CCCN(C)C)ccc2O[C@@H]1CN(C)S(=O)(=O)c1cccs1` reads inactive: 0.977.
The result for `COc1ccc(NC(=O)N(C)C[C@H]2OCCCC[C@H](C)Oc3ccc(NS(=O)(=O)c4ccc(Cl)cc4)cc3C(=O)N([C@@H](C)CO)C[C@@H]2C)cc1` reads inactive: 1.04.
On to `Nc1ccc(C(=O)[O-])cc1.[K+]`, for which the relative growth is inactive: 1.01.
In the case of `C=C(C)C1CCC2(CO)CCC3(C)C(CCC4C5(C)CCC(O)C(C)(C)C5CCC43C)C12` (stereo not given), the relative growth was inactive: 0.915.
`C[C@H]1CCCCO[C@@H](CN(C)Cc2ccncc2)[C@@H](C)CN([C@@H](C)CO)C(=O)c2cc(NC(=O)Nc3ccc(C(F)(F)F)cc3)ccc2O1`: the relative growth was inactive: 1.08.
The figure for `O=C(CN1CCOCC1)NCC[C@H]1CC[C@@H](NC(=O)Nc2ccccc2)[C@@H](CO)O1` is inactive: 1.01; for `COc1ccc(-c2cc(=O)c3c(O)cc(O[C@@H]4O[C@H](CO[C@@H]5O[C@@H](C)[C@H](O)[C@@H](O)[C@H]5O)[C@@H](O)[C@H](O)[C@H]4O)cc3o2)cc1O` it is inactive: 1.05.
The result for `COc1ccc(NC(=O)Nc2ccc3c(c2)C(=O)N([C@@H](C)CO)C[C@@H](C)[C@H](CN(C)S(=O)(=O)c2ccc(C)cc2)OCCCC[C@H](C)O3)cc1` reads inactive: 1.01; that for `COc1ccc(OC)c(S(=O)(=O)NC(=O)[C@@]2(C)CCN2C(=O)Cc2ccc(Cl)cc2Cl)c1`, inactive: 0.994.
With `CS(=O)(=O)CC(=O)N1C[C@H]2COC[C@@]2(COc2ccccn2)C1`, the relative growth was inactive: 0.993.
As for `COc1ccc(-c2cnc3c(c2)C(=O)N([C@H](C)CO)C[C@H](C)[C@H](CN(C)S(=O)(=O)c2cn(C)cn2)O3)cc1`, the relative growth is inactive: 0.967.
The result for `C[C@H](CO)N1C[C@H](C)[C@H](CN(C)Cc2ccc(C(=O)Nc3ccccc3N)cc2)Oc2c(NC(=O)Nc3ccccc3)cccc2C1=O` reads inactive: 0.982; that for `C[C@@H]1CN([C@@H](C)CO)C(=O)c2cccc(NC(=O)C3CCOCC3)c2O[C@@H]1CN(C)Cc1ccccc1`, inactive: 0.911; that for `C[C@@H]1CN([C@@H](C)CO)C(=O)c2cc(C#CCN(C)C)cnc2O[C@H]1CN(C)C(=O)Nc1cccc(F)c1`, inactive: 1.03.
Take `N[C@@H](CS(=O)O)C(=O)O`: the relative growth is inactive: 0.978.
Consider `COc1ccc([C@@H]([C@H](Cc2ccccc2)OC(C)=O)N2C[C@@H]3[C@H]([C@@H]2Cc2ccccc2)N(C)O[C@@]3(O)[C@@H](O)c2ccccc2)cc1`, for which the relative growth was inactive: 1.03.
In the case of `CC(C)NC(=O)Nc1ccc2c(c1)C(=O)N([C@H](C)CO)C[C@H](C)[C@@H](CN(C)C(=O)C1CCCCC1)OCCCC[C@@H](C)O2`, the relative growth is inactive: 0.984.
As for `COc1ccc(NC(=O)N2C[C@@H](O)COC[C@H]3O[C@@H](CC(=O)NCc4ccccc4OC)CC[C@@H]32)cc1`, the relative growth was inactive: 1.01.
The result for `C[C@@H]1CCCCO[C@H](CN(C)Cc2ccc(C(F)(F)F)cc2)[C@@H](C)CN([C@@H](C)CO)C(=O)c2cc(NS(=O)(=O)c3ccc(F)cc3)ccc2O1` reads inactive: 1.03; that for `C[C@@H]1CN([C@@H](C)CO)C(=O)CCCn2cc(nn2)CO[C@@H]1CN(C)Cc1cccc2c1OCCCO2`, inactive: 1.01.
The figure for `C[C@@H]1CN([C@H](C)CO)C(=O)c2cc(NC(=O)Nc3ccc(C(F)(F)F)cc3)ccc2O[C@H]1CN(C)Cc1ccncc1` is inactive: 0.916.
Turning to `CN(C)CCCNC(=O)C[C@H]1CC[C@H]2[C@@H](COC[C@@H](O)CN2C(=O)Nc2cc(Cl)cc(Cl)c2)O1`, the relative growth is inactive: 0.986.
Regarding `O=C(NO)c1cccc(C(=O)N/N=C/c2cc(I)cc(I)c2O)c1`, the relative growth was inactive: 0.89.
The result for `Nc1nc(=O)n([C@@H]2O[C@H](CO)[C@@H](O)[C@H]2O)cc1CO` reads inactive: 0.986; that for `COc1ccc(S(=O)(=O)N(C)C[C@@H]2Oc3ccc(N(C)C)cc3CC(=O)N([C@H](C)CO)C[C@@H]2C)cc1`, inactive: 0.974; that for `COCC(=O)N1CC[C@]2(CC1)CN(Cc1cccc(c1)OC)[C@@H](CO)c1c2c2ccc(cc2n1C)OC`, inactive: 1.01.
As for `C[C@@H]1CN([C@H](C)CO)C(=O)c2cccc(NC(=O)C3CCCCC3)c2O[C@H]1CN(C)Cc1ccc(Oc2ccccc2)cc1`, the relative growth is inactive: 0.978.
The figure for `COc1ccc(NC(=O)N(C)C[C@@H]2OCCCC[C@@H](C)Oc3ccc(NC(=O)Nc4ccccc4)cc3C(=O)N([C@@H](C)CO)C[C@@H]2C)cc1` is inactive: 1.04; for `C#Cc1ccc(C(=O)NO)s1` it is inactive: 0.952; for `C[C@H](CO)N1C[C@H](C)[C@@H](CN(C)S(C)(=O)=O)OCCCC[C@H](C)Oc2ccc(NS(C)(=O)=O)cc2C1=O` it is inactive: 1.
The result for `COc1ccc([Si](C)(C)[C@H]2[C@H](CCO)O[C@@]3(C(=O)N(Cc4cccc(N5C(=O)c6cccc7cccc5c67)c4)c4ccccc43)[C@@H]2C)cc1` reads inactive: 1.05; that for `Cc1noc(C)c1NC(=O)Nc1ccc2c(c1)CC(=O)N([C@H](C)CO)C[C@@H](C)[C@H](CN(C)CC1CC1)O2`, inactive: 1.02; that for `Cc1noc(C)c1NC(=O)Nc1ccc2c(c1)C(=O)N([C@H](C)CO)C[C@H](C)[C@@H](CN(C)S(=O)(=O)c1ccccc1)OCCCC[C@@H](C)O2`, inactive: 1.01.
The figure for `C[C@H](CO)N1C[C@H](C)[C@H](CN(C)C(=O)Nc2ccc(F)cc2)Oc2c(NC(=O)c3nc4ccccc4s3)cccc2C1=O` is inactive: 1.03; for `C[C@@H]1CN([C@@H](C)CO)C(=O)c2c(c3ccccc3n2C)-c2ccccc2CO[C@H]1CN(C)C(=O)c1cc(Cl)cc(Cl)c1` it is inactive: 0.998.
`COC(=O)[C@@H](C)N(C#N)c1nc(C)cc(C)n1`: the relative growth is inactive: 1.01.
As to `C[C@H]1CN([C@@H](C)CO)C(=O)c2cccc(NC(=O)C3CCCCC3)c2O[C@H]1CN(C)Cc1ccc(C(F)(F)F)cc1`, the relative growth was inactive: 0.979.
For `C[C@@H]1CCCCO[C@@H](CN(C)Cc2ccc(C(F)(F)F)cc2)[C@@H](C)CN([C@@H](C)CO)C(=O)c2cc(NC(=O)Nc3ccccc3)ccc2O1`, the relative growth is inactive: 0.926.
The figure for `COCC(=O)Nc1ccc2c(c1)OC[C@@H](C)N(Cc1ccccc1F)C[C@@H](C)[C@@H](OC)CN(C)C2=O` is inactive: 1.02; for `CC(=O)Nc1ccc(CN(C)c2c(C)nc3ccc(C(=O)N4CCN(C(=O)c5ccco5)CC4)cn23)cc1` it is inactive: 0.985.
The figure for `C[C@@H]1CN([C@H](C)CO)C(=O)c2cccc(NC(=O)Nc3ccccc3)c2O[C@H]1CN(C)Cc1ccc(Cl)c(Cl)c1` is inactive: 0.995; for `COCC(=O)N1CC[C@]2(CC1)CN([C@@H](CO)c1[nH]c3cc(ccc3c12)OC)S(=O)(=O)C` it is inactive: 1.02.
In the case of `C[C@@H]1CCCCO[C@H](CN(C)Cc2ccncc2)[C@H](C)CN([C@H](C)CO)C(=O)c2cc(NS(C)(=O)=O)ccc2O1`, the relative growth is inactive: 0.982.
